Entries after “also recorded” stand apart in the source; their conditions may differ. Certain results were filed several times, with different values. The other results are left out here. There may be further records. Values given together appear to be repeats on other runs, samples or individuals. What stands in brackets tells the records apart. Letters hold for one entry only. Positions of bridges follow the written chain, without caps; N, C: chain ends. Non-standard residues stand in square brackets, D forms with d.

The nature of the data set: NMR secondary 1Hα chemical shifts at a range of temperatures. The format is physicochemical. The settings on record: NMR spectra at 25° C., 55° C., 75° C.; listed as NC_HLHR_D1. As to the method:
FIG. 19: Secondary ^1Hα chemical shifts at a range of temperatures for peptide NC_cHLHR_D1 (SEQ ID NO:09). NMR spectra were collected at 25° C. (black bars), 55° C. (blue bars), 75° C. (red bars), and again after cooling to 25° C. (green bars).
Each non-canonical peptide (1 mg) was dissolved in […] of 10% D20/90% H2O or 100% D2O (˜pH 4). NMR spectra were recorded at 298K on a Bruker Avance-600 spectrometer. Two-dimensional NMR experiments included TOCSY with an […] MLEV-17 spin lock, NOESY (200 ms mixing time), ECOSY, as well as natural-abundance ^13C and ^15N HSQC. Solvent suppression was achieved using excitation sculpting. Spectra were processed using Topspin 2.1 then analyzed using CcpNmr Analysis. Chemical shifts were referenced to internal 2,2-dimethyl-2-silapentane-5-sulfonate (DSS).

As for “NPELQRKCKELdTRpeaerkcreeSD (cyclo(NPELQRKCKEL[dD]TR[dP][dE][dA][dE][dR][dK][dC][dR][dE][dE]SD); disulfide 8-21 (inferred)) [NC_cHLHR_D1]”, the “change of secondary 1Hα chemical shifts (secondary structure) on heating” value was “no change from 25 °C (black) to 75 °C [passage A]; also recorded: no significant change on heating to 75 °C [passage B]”.

These data come from patent US20210134388A1, “Hyperstable Constrained Peptides and Their Design” (University of Washington, priority 2016, published 2021).
